In PubChem BioAssay AID1508624 (National Center for Advancing Translational Sciences (NCATS), 2021):
The campaign covered roughly 48,000 compounds. About 120 (0.25%) were called active. Not shown: some 4% with an inconclusive outcome. Calls follow the shape of the dose curve; as a rule, active = well fitted activation curve with a large enough effect; inconclusive = small, poorly fitted or top-dose-only effect, or another doubt; inactive = no such curve, though single readings can be large or run the other way. The list shows a part of the results.

test: Primary qHTS for Identification of Small Molecule Activators of Huntingtin-Antisense Promoter Activity; settings: HEK293 HTT-AS promoter firefly luciferase reporter, 24 h; series mostly up to 57.5 µM; activity change, positive = activation: at the top concentration; also: nearly all actives have a fitted effect of over 55% in size
Summary of the method: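 Luminescence was read after Dual-Glo reagent and a 10 min room-temperature incubation. Values were normalized to vehicle (0% activity) and zero RLU (-100% activity). Reporter HEK293 cells had been exposed to compounds (up to 57.5 uM final) for 24 h.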

Activity change, positive = activation, inactive:
CCCCc1nc2ccccc2n2c(-c3ccc(C)cc3)c3c(=O)n(C)c(=O)n(C)c3c12 9.72% [at 11.5 µM, percent change from vehicle, -100% = no light]
CSc1cccc(NC(=O)CN(c2ccccc2)S(=O)(=O)N(C)C)c1 -9.84%
CC1CCN(S(=O)(=O)c2ccc3c(c2)N(CC(=O)NC(C)c2ccccc2)C(=O)CO3)CC1 (stereo not given) -8.26%
Cc1cc(N2CCCCC2)nc2ccc(NC(=O)c3cccc(F)c3)cc12 2.94%
COc1ccc(N2CCN(C(=O)c3ccc(CS(=O)(=O)c4ccc(Br)cc4)o3)CC2)cc1 -15.5%
Cc1nc(N2CCCC2)c2c(C(=O)N3CCN(c4cccc(Cl)c4)CC3)c(C)oc2n1 -36.4%
C=Cc1ccc(CSc2nc(-c3ccccc3Cl)nc3c2Cc2c(CO)cnc(C)c2O3)cc1 -23%
CN(C)CCNC(=O)CCCN1C(=O)c2cccnc2Oc2ccc(Cl)cc21 0.28%
O=C1CC(c2nc3ccccc3n2CCCOc2ccccc2)CN1c1ccc(F)cc1 (stereo not given) -46%
Cc1cc(C)cc(-n2ccn(CC(=O)Nc3ccccc3C(F)(F)F)c(=O)c2=O)c1 -3.56%
CCN(c1ccccc1)c1nnc(NC(=O)Nc2cccc(Br)c2)s1 -13.3%
Cc1ccc(N2CC(C)Cn3c2nc2c3c(=O)n(CC(=O)O)c(=O)n2C)cc1 (stereo not given) -6%
COCCCNC(=O)CSc1c2c(nc3ccc(Cl)cc13)CCCC2 -27.8%
CCN(c1ccc(OC)cc1)S(=O)(=O)c1nnc(NC(=O)c2ccccc2Cl)s1 -20.4%
CCOc1ccc(C2c3c(oc4ccc(C)cc4c3=O)C(=O)N2Cc2ccc3c(c2)OCO3)cc1OC (stereo not given) -5.41%
Cc1ccc(CNC(=O)c2ccc(CSCc3ccc(C)cc3)o2)cc1 -25.7%
C=C(C)[C@@H]1CC[C@]2(C)CC[C@]3(C)[C@H](CC[C@@H]4[C@@]5(C)CC[C@H](O)C(C)(C)[C@H]5CC[C@]43C)[C@@H]12 -2.46%
Cc1ccc(NS(=O)(=O)c2ccc3[nH]c4c(c3c2)CCCCCC4)cc1Cl -48.5%
COCC(=O)N1c2nc(C(C)C)nn2C2(CCCCC2)[C@@H]2CCCC[C@@H]21 -31.3%
Cc1c(C(=O)NCc2ccccc2)sc2nc3n(c(=O)c12)CCC3 27.6%
CCCOC(=O)c1ccc(NC(=O)Cc2csc(C)n2)cc1 -0.356%
CSc1nc2sc3c(c2c(=O)n1-c1ccccc1C)CCCC3 -30.1%
Cc1cccc(N2C(=O)CSC23C(=O)N(Cc2cccc(C(F)(F)F)c2)c2ccccc23)c1 (stereo not given) -33.5%
CCC(=O)N1CCc2cc(Br)cc(S(=O)(=O)NCc3ccc(Cl)cc3)c21 -24.6%
O=C(Nc1ccc(NC(=O)c2cccs2)cc1)c1ccc(Br)cc1 -28.7%
CC(C)(C)C(=O)Nc1ccc2nc(SCC(=O)N3CCCC3)sc2c1 14.2%
O=C(OCc1ccccc1Cl)c1ccc(-c2nnn(Cc3ccccc3)n2)cc1 -1.18%
CCN(CCCNC(=O)c1cc2cc3cc(C)ccc3nc2s1)c1cccc(C)c1 12.1%
NCC1CCC(C(=O)Oc2ccc(CCC(=O)O)cc2)CC1 (stereo not given) -28.3%
COc1ccc(/C=C(/C#N)c2nc(-c3ccc(-c4ccccc4)cc3)cs2)cc1 -2.09%
Cc1ccc(C)c(NC(=O)C(=O)NCCc2csc(-c3ccc(C(F)(F)F)cc3)n2)c1 -7.86%
Cc1nc(-c2ccccc2)sc1CCNC(=O)c1ccco1 -8.51%
CCN(C(=O)Cn1ncc2c1-c1cc(C)ccc1OC2)c1cc(Cl)ccc1OC -44.8%
CCc1ccccc1NC(=O)CSc1ncc2c(n1)-c1ccccc1N(Cc1ccc(C)cc1)S2(=O)=O 10.5%
Cc1ccc(S(=O)(=O)c2cn(Cc3ccccc3)c3cc(N4CCCC4)c(F)cc3c2=O)cc1C -14.3%
COc1ccccc1CNS(=O)(=O)c1c(C)nc2sccn2c1=O -1.97%
CCN(Cc1ccccc1)C(=O)CCNS(=O)(=O)c1ccc2c(c1)CC(C)N2C(C)=O (stereo not given) -18.9%
CCOC(=O)c1ccccc1NS(=O)(=O)c1c(-c2ccc(C)cc2)csc1C(=O)OC -34.3%
COc1cccc(CNC(=O)CCc2c(C)c3cc4c(C)c(C)oc4cc3oc2=O)c1 -5.87%
CCC(CC)c1nn2c(=O)cc(COc3ccc(NC(=O)c4ccc(Cl)cc4)cc3)nc2s1 -11.6%
COc1ccc(-n2ncc(C(=O)N3CCN(c4ccccn4)CC3)c2C2CCN(C(=O)OC(C)(C)C)CC2)cc1 0.888%
CC(Sc1oc(-c2ccco2)nc1S(=O)(=O)c1ccc(Br)cc1)c1ccccc1 (stereo not given) 1.19%
COCCNc1nc(NCc2ccccc2OC)c2cnn(C)c2n1 -22.9%
CCCCNc1nc(Oc2ccc(=O)n(-c3ccccc3)n2)nc(N(C)C)n1 -11.4%
CN(C(=O)c1nn(C)c2c1COc1ccccc1-2)c1cccc(C(F)(F)F)c1 -11.7%
CCC(C)NC(=O)c1ccc2c(c1)N(Cc1cccc(Cl)c1)C(=O)c1ccccc1S2=O (stereo not given) -24.7%
COCCNC(=O)c1c(NC(=O)Cc2coc3cc(C)ccc23)sc2c1CCCC2 -5.96%
Nc1nc(-c2ccccc2)c(Br)c(=O)[nH]1 -2.85%
COc1ccc(N2CCN(CCCNC(=O)c3cnn(-c4ccc(F)cc4)c3-n3cccc3)CC2)cc1 -51.3%
CCOC(=O)c1cn(CC(=O)Nc2cccc(Cl)c2C)nn1 -3.17%
O=C(CN(c1cccc(Br)c1)S(=O)(=O)c1ccccc1)N1CCc2ccccc2C1 -44.6%
COc1ccc(N2CCN(c3nc(-c4ccccc4F)nc4ccccc34)CC2)cc1 -22.7%
CCOc1ccccc1NC(=O)C(NS(=O)(=O)c1cccc2nsnc12)c1ccccc1 (stereo not given) -19.7%
Cc1nnc(N2CCN(c3ccccc3F)CC2)c2c1nnn2Cc1ccc(F)cc1 1.28%
CCOC(=O)Cn1c(=O)cc(-c2ccccc2)c2c(C)nn(C)c21 -10.3%
CCC(C)NC(=O)Cn1c(=O)n(-c2ccc(C)cc2)c(=O)c2ccccc21 (stereo not given) -17%
CCc1ccccc1N(CC)C(=O)c1cc2c(s1)-c1ccccc1OC2 -27.1%
CCc1ccc(-n2nc(CO)c(C(=O)NCc3ccccn3)n2)cc1 11.7%
COc1ccc(OC)c(CCNC(=O)c2ccc(CS(=O)Cc3cccc(Cl)c3)o2)c1 (stereo not given) -18.2%
Cc1ccccc1CSc1nc2nc(C)c(Cc3ccccc3)c(C)n2n1 0.188%
